Assay results from PubChem BioAssay AID220 (DTP/NCI, 2004).
Inconclusive results are not listed. Not every entry of the source has a single result; some have several. Only these are listed. An entry can have further records. Values given together differ for a reason that is not stated; dose, time, organism, isomer or construct need not be as stated for each record.

System: CD8F1 mice, subcutaneous mammary adenocarcinoma, T/C%
Assay: NCI In Vivo Anticancer Drug Screen. Data for tumor model Mammary Adenocarcinoma CD8F1 (subcutaneous) in CD8F1
Conditions: higher = larger tumour
Description: The antitumor activity of compounds was measured in mice bearing transplantable tumors. Survival or tumor size were measured and the results are expressed as the measurement made in the treated group (T) divided by the measurement made in the vehicle treated control group (C). The tumor model used in this assay is Mammary Adenocarcinoma CD8F1 (subcutaneous) in CD8F1

[1] = endpoint: median tumor weight change, dose: 250.0 mg/kg/injection, schedule: Q01DX001 (ip), vehicle: saline with Tween-80
[2] = endpoint: median tumor weight change, dose: 500.0 mg/kg/injection, schedule: Q01DX001 (ip), vehicle: saline with Tween-80

What does the source list for `NC(CCC(=O)NC(CS)C(=O)NCC(=O)O)C(=O)O` (centres undefined)?
T/C (endpoint: median tumor weight change, dose: 250.0 mg/kg/injection, schedule: Q01DX001 (ip), vehicle: saline): 61 % of control and 119 % of control; T/C (endpoint: median tumor weight change, dose: 1000.0 mg/kg/injection, schedule: Q01DX001 (ip), vehicle: saline): 77 % of control and 108 % of control; T/C (endpoint: median tumor weight change, dose: 2000.0 mg/kg/injection, schedule: Q01DX001 (ip), vehicle: saline): 73 % of control and 193 % of control

`CNNCc1ccc(C(=O)NC(C)C)cc1` was tested. Which T/C (endpoint: median tumor weight (est.), dose: 1.0 mg/kg/injection, schedule: Q07DX005 (ip), vehicle: saline) did it give?
Its T/C is 68 % of control and 161 % of control.

What about the T/C (endpoint: median tumor weight (est.), dose: 2.0 mg/kg/injection, schedule: Q07DX005 (ip), vehicle: saline) of the same compound?
Its T/C is 63 % of control and 343 % of control.

And the T/C (endpoint: median tumor weight (est.), dose: 4.0 mg/kg/injection, schedule: Q07DX005 (ip), vehicle: saline)?
Its T/C is 63 % of control and 424 % of control.

What about the T/C (endpoint: median tumor weight (est.), dose: 8.0 mg/kg/injection, schedule: Q07DX005 (ip), vehicle: saline) of the same compound?
Its T/C is 48 % of control and 333 % of control.

And the T/C (endpoint: median tumor weight (est.), dose: 32.0 mg/kg/injection, schedule: Q07DX005 (ip), vehicle: saline)?
Its T/C is 54 % of control and 229 % of control.

What does the source list for `Cc1ccc(C2NC(=O)c3ccccc3N2)s1` (centres undefined)?
T/C (endpoint: median tumor weight (est.), dose: 100.0 mg/kg/injection, schedule: Q07DX005 (ip), vehicle: Klucel (hydroxypropylcellulose) (HPC)): 40 % of control and 122 % of control; T/C (endpoint: median tumor weight (est.), dose: 200.0 mg/kg/injection, schedule: Q07DX005 (ip), vehicle: Klucel (hydroxypropylcellulose) (HPC)): 77 % of control and 183 % of control; T/C (endpoint: median tumor weight (est.), dose: 400.0 mg/kg/injection, schedule: Q07DX005 (ip), vehicle: Klucel (hydroxypropylcellulose) (HPC)): 72 % of control and 178 % of control

What does the source list for `COc1ccc(C(=O)c2no[n+]([O-])c2C(=O)c2ccc(OC)cc2)cc1`?
T/C (endpoint: median tumor weight change, dose: 125.0 mg/kg/injection, schedule: Q01DX001 (ip), vehicle: saline with Tween-80): 32 % of control and 94 % of control; T/C [1]: 42 % of control and 99 % of control

Which results are given for `COc1cccc2c1C(=O)c1c(O)c3c(c(O)c1C2=O)C[C@@](O)(C(=O)CO)C[C@@H]3OC1CC(N)C(O)C(C)O1` (some centres undefined)?
T/C (endpoint: mean tumor weight, dose: 1.0 mg/kg/injection, schedule: Q07DX006 (ip), vehicle: saline): 59 % of control and 106 % of control; T/C (endpoint: mean tumor weight, dose: 2.0 mg/kg/injection, schedule: Q07DX006 (ip), vehicle: saline): 9 % of control and 90 % of control; T/C (endpoint: median tumor weight change, dose: 10.0 mg/kg/injection, schedule: Q01DX001 (ip), vehicle: water): -57 % of control and 2 % of control

How did the T/C (endpoint: median tumor weight change, dose: 400.0 mg/kg/injection, schedule: Q01DX001 (ip), vehicle: suspension in saline) turn out when `N=C(N)SCc1c2ccccc2c(CSC(=N)N)c2ccccc12` was run?
Its T/C is -7 % of control and 75 % of control.

`Nc1ncnc2nc[nH]c12` was tested. Which T/C (endpoint: median tumor weight (est.), dose: 32.0 mg/kg/injection, schedule: Q07DX005 (ip), vehicle: Klucel (hydroxypropylcellulose) (HPC)) did it give?
Its T/C is 32 % of control, 84 % of control, 92 % of control.

What about the T/C (endpoint: median tumor weight (est.), dose: 128.0 mg/kg/injection, schedule: Q07DX005 (ip), vehicle: Klucel (hydroxypropylcellulose) (HPC)) of the same compound?
Its T/C is 43 % of control, 75 % of control, 77 % of control.

And the T/C (endpoint: median tumor weight (est.), dose: 256.0 mg/kg/injection, schedule: Q07DX005 (ip), vehicle: Klucel (hydroxypropylcellulose) (HPC))?
The T/C was 43 % of control, 55 % of control, 86 % of control.

For `N[C@@H](Cc1ccc(N(CCCl)CCCl)cc1)C(=O)O`, which T/C (endpoint: median tumor weight (est.), dose: 8.0 mg/kg/injection, schedule: Q01DX001 (ip), vehicle: suspension in saline) is on record?
Its T/C is 21 % of control, 28 % of control, 50 % of control.

With `CCN(CC)CCNc1ccc(C)c2sc3ccc(O)cc3c(=O)c12` as the compound, how does the T/C [1] read?
Its T/C is 57 % of control and 168 % of control.

And the T/C [2]?
The T/C was 19 % of control and 99 % of control.

Which results are given for `CC(C)NC(=O)N(CCCCBr)N=O`?
T/C (endpoint: median tumor weight change, dose: 125.0 mg/kg/injection, schedule: Q01DX001 (ip), vehicle: Klucel (hydroxypropylcellulose) (HPC)): 16 % of control and 61 % of control; T/C (endpoint: median tumor weight change, dose: 250.0 mg/kg/injection, schedule: Q01DX001 (ip), vehicle: Klucel (hydroxypropylcellulose) (HPC)): -59 % of control and -18 % of control

Which T/C (endpoint: median tumor weight change, dose: 18.0 mg/kg/injection, schedule: Q01DX001 (ip), vehicle: saline with Tween-80) does the source give for `CC[N+](CC)(CC)CC` here?
Its T/C is 20 % of control and 56 % of control.

What about the T/C (endpoint: median tumor weight change, dose: 26.0 mg/kg/injection, schedule: Q01DX001 (ip), vehicle: saline with Tween-80) of the same compound?
Its T/C is -20 % of control and 13 % of control.

What does the source list for `COc1ccc(Cl)[n+]([O-])n1`?
T/C (endpoint: median tumor weight change, dose: 31.25 mg/kg/injection, schedule: Q01DX001 (ip), vehicle: Klucel (hydroxypropylcellulose) (HPC)): 59 % of control and 85 % of control; T/C (endpoint: median tumor weight change, dose: 62.5 mg/kg/injection, schedule: Q01DX001 (ip), vehicle: Klucel (hydroxypropylcellulose) (HPC)): 54 % of control and 89 % of control

How did the T/C (endpoint: median tumor weight change, dose: 50.0 mg/kg/injection, schedule: Q01DX001 (ip), vehicle: saline with Tween-80) turn out when `COc1cc2c3c(cccc3c1)C(=O)N(CCN(C)C)C2=O` was run?
Its T/C is 73 % of control and 99 % of control.

What about the T/C (endpoint: median tumor weight change, dose: 100.0 mg/kg/injection, schedule: Q01DX001 (ip), vehicle: saline with Tween-80) of the same compound?
The T/C was 45 % of control and 90 % of control.

For `CN(C)N=Nc1ccccc1`, which T/C (endpoint: median tumor weight (est.), dose: 50.0 mg/kg/injection, schedule: Q07DX005 (ip), vehicle: Klucel (hydroxypropylcellulose) (HPC)) is on record?
The T/C was 23 % of control and 89 % of control.

Which T/C (endpoint: median tumor weight change, dose: 5.0 mg/kg/injection, schedule: Q01DX001 (ip), vehicle: Klucel (hydroxypropylcellulose) (HPC)) does the source give for `CC1OC1C(=O)C1(O)C(C)C(O)C23OC2(C(O)c2c(O)cccc2C3=O)C1O` (centres undefined) here?
The T/C was 43 % of control and 110 % of control.

And the T/C (endpoint: median tumor weight change, dose: 20.0 mg/kg/injection, schedule: Q01DX001 (ip), vehicle: Klucel (hydroxypropylcellulose) (HPC))?
The T/C was 30 % of control, 87 % of control, 95 % of control.

Which T/C (endpoint: median tumor weight change, dose: 10.0 mg/kg/injection, schedule: Q01DX001 (ip), vehicle: suspension in saline) does the source give for `Nc1ncnc2c1ncn2C1C=C(CO)C(O)C1O` (centres undefined) here?
The T/C was 74 % of control and 122 % of control.

For `C=C1C(C)C2C(Cc3ccccc3)NC(=O)C23C(OC(C)=O)/C=C/C(C)(O)CC(C)C/C=C/C3C1O` (centres undefined), which T/C (endpoint: median tumor weight change, dose: 3.75 mg/kg/injection, schedule: Q01DX001 (ip), vehicle: Klucel (hydroxypropylcellulose) (HPC)) is on record?
The T/C was 70 % of control and 197 % of control.

For `CN(CCN(C)C(=O)CCOS(C)(=O)=O)C(=O)CCOS(C)(=O)=O`, which T/C (endpoint: median tumor weight change, dose: 250.0 mg/kg/injection, schedule: Q01DX001 (ip), vehicle: suspension in saline) is on record?
Its T/C is -40 % of control and 11 % of control.

With `C1OC1CN1CCN(CC2CO2)CC1` (centres undefined) as the compound, how does the T/C (endpoint: median tumor weight (est.), dose: 6.25 mg/kg/injection, schedule: Q07DX005 (ip), vehicle: saline) read?
Its T/C is 9 % of control and 84 % of control.

Which T/C (endpoint: median tumor weight change, dose: 6.25 mg/kg/injection, schedule: Q01DX001 (ip), vehicle: saline) does the source give for `C[PH+](C)C.C[PH+](C)C.[Au]` here?
The T/C was 93 % of control and 124 % of control.

Which T/C (endpoint: median tumor weight change, dose: 400.0 mg/kg/injection, schedule: Q01DX001 (ip), vehicle: Klucel (hydroxypropylcellulose) (HPC)) does the source give for `C[C@]12C=CC(=O)C=C1CC[C@@H]1[C@@H]2[C@@H](O)C[C@@]2(C)[C@H]1CC[C@]2(O)C(=O)CO` here?
Its T/C is 45 % of control, 71 % of control, 103 % of control.

How did the T/C [1] turn out when `CC[C@H](CC[C@@H](C)C1CC[C@H]2[C@@H]3CC=C4C[C@@H](OP(=O)(N5CC5)N5CC5)CC[C@]4(C)[C@H]3CC[C@]12C)C(C)C` (some centres undefined) was run?
The T/C was 54 % of control and 81 % of control.

And the T/C [2]?
The T/C was 35 % of control and 87 % of control.

How did the T/C (endpoint: median tumor weight change, dose: 0.25 mg/kg/injection, schedule: Q01DX001 (ip), vehicle: Klucel (hydroxypropylcellulose) (HPC)) turn out when `COC1=C(N)C(=O)c2nc(-c3nc(C(=O)O)c(C)c(-c4ccc(OC)c(OC)c4O)c3N)ccc2C1=O` was run?
Its T/C is 7 % of control, 16 % of control, 83 % of control.

What about the T/C (endpoint: median tumor weight change, dose: 1.0 mg/kg/injection, schedule: Q01DX001 (ip), vehicle: Klucel (hydroxypropylcellulose) (HPC)) of the same compound?
Its T/C is -51 % of control, 4 % of control, 8 % of control.
